The text below walks through data of a collection of fitness landscapes (doi:10.1038/s41467-024-54723-y).

In all, about 18,000 sequences were measured (“TetR repression strength (sort-seq, GFP reporter)”: median about 0.23, highest 2% from about 0.68 on). Some of the results follow.

Sequence of UniProt P04483 (P04483 whole entry): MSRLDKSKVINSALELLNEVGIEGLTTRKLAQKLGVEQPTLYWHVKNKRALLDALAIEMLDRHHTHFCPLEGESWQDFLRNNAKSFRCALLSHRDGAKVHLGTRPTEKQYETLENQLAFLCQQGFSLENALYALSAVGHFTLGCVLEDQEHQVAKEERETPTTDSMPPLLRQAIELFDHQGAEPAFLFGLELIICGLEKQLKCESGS

For this assay, the target named is TetR (class B, Tn10) (UniProt P04483). In words: TetR repression strength (sort-seq, GFP reporter) (relative to tetO2 = 1); higher = stronger repression. Particulars: E. coli. In outline:
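In LB with 50 µg/mL chloramphenicol, E. coli SIG10-MAX holding a low-copy library with eight randomized operator positions between a constitutive promoter and sfGFP, plus constitutive TetR, grew for 5 h at 37 °C. FACS then sorted 10^6 cells into 13 fluorescence bins for Illumina sequencing of each bin. Repression strength equals the top bin index plus one less the read-weighted mean bin, normalized to the unaltered operator. Values from three independent transformations were averaged when reads were ≥30 in every replicate and the CV was ≤0.5.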
As to TCCCGGGGAGTATATGAGA, the TetR repression strength was found to be 0.131.

The sequence TCCCATGGAGTTCATGAGA had a TetR repression strength of 0.0516.

With TCCCAGTCAGTCTAGGAGA, the TetR repression strength came to 0.207.

Consider TCCCTTATAGTCGCGGAGA, for which the TetR repression strength was determined as 0.142.

In the case of TCCCGTAGAGTTGTCGAGA, the TetR repression strength turned out to be 0.0979.

For TCCCGCTGAGTTTTAGAGA, the TetR repression strength stood at 0.245.

On to TCCCAGCAAGTTAGAGAGA, for which the TetR repression strength was determined as 0.53.

In turn, TCCCGGGCAGTACACGAGA gave a TetR repression strength of 0.318.

TCCCATTGAGTACGGGAGA yielded a TetR repression strength of 0.227.

As to TCCCGAGAAGTGCTGGAGA, the TetR repression strength came out at 0.428.

As to TCCCTAGGAGTGTTAGAGA, the TetR repression strength came to 0.2.

TCCCAGCTAGTTGGGGAGA had a TetR repression strength of 0.262.

In the case of TCCCTATAAGTCATCGAGA, the TetR repression strength came out at 0.687.

Sequence TCCCGCTTAGTGTTAGAGA came in with a TetR repression strength of 0.03.

TCCCGGGTAGTGAAGGAGA registered a TetR repression strength of 0.262.

TCCCTGGGAGTAAGCGAGA displayed a TetR repression strength of 0.357.

For TCCCCTGCAGTTGGCGAGA, the TetR repression strength was determined as 0.247.

Take TCCCGGGCAGTGCTAGAGA: the TetR repression strength worked out at 0.309.

The sequence TCCCCGGAAGTAAGGGAGA yielded a TetR repression strength of 0.128.

Consider TCCCTATCAGTGTAGGAGA, for which the TetR repression strength turned out to be 0.484.

Consider TCCCGGTGAGTGTGCGAGA, for which the TetR repression strength came out at 0.263.

TCCCGTGCAGTGGAAGAGA came in with a TetR repression strength of 0.497.

In turn, TCCCCTGAAGTGTGCGAGA had a TetR repression strength of 0.299.

In turn, TCCCCGAAAGTGGGTGAGA gave a TetR repression strength of 0.161.

For the sequence TCCCTAAGAGTTAATGAGA, the TetR repression strength worked out at 0.217.

Consider TCCCTAATAGTGTAAGAGA, for which the TetR repression strength amounted to 0.0478.

As to TCCCTAAAAGTTGGGGAGA, the TetR repression strength was determined as 0.168.

Regarding TCCCCTGAAGTCCACGAGA, the TetR repression strength came out at 0.305.

TCCCGGGGAGTTCCCGAGA showed a TetR repression strength of 0.0105.

For the sequence TCCCGATAAGTACTCGAGA, the TetR repression strength is 0.212.

TCCCACTCAGTGAGAGAGA displayed a TetR repression strength of 0.514.

In turn, TCCCTAGTAGTACGCGAGA had a TetR repression strength of 0.0159.

TCCCCAAAAGTAGATGAGA: the TetR repression strength is 0.081.

The sequence TCCCAGACAGTTGGGGAGA had a TetR repression strength of 0.0203.

With TCCCTCGCAGTGGTGGAGA, the TetR repression strength is 0.223.

The sequence TCCCGTGTAGTTTTTGAGA had a TetR repression strength of 0.207.

For the sequence TCCCTGTCAGTTGACGAGA, the TetR repression strength was 0.225.

Sequence TCCCGTTCAGTCTAAGAGA came in with a TetR repression strength of 0.181.

In turn, TCCCTAGGAGTCTGTGAGA returned a TetR repression strength of 0.318.

TCCCGCAAAGTATGAGAGA registered a TetR repression strength of 0.0691.

TCCCATTGAGTGCAGGAGA showed a TetR repression strength of 0.466.

TCCCGTTCAGTATGAGAGA yielded a TetR repression strength of 0.157.

The sequence TCCCGTTGAGTGCTTGAGA had a TetR repression strength of 0.223.

As to TCCCTGTAAGTGGACGAGA, the TetR repression strength was 0.166.

On to TCCCGAAAAGTCTTGGAGA, for which the TetR repression strength is 0.171.

In the case of TCCCGGTTAGTGCGTGAGA, the TetR repression strength amounted to 0.192.

The sequence TCCCGTCAAGTAGCCGAGA had a TetR repression strength of 1.02.

Consider TCCCGAGCAGTTCATGAGA, for which the TetR repression strength came out at 0.225.

Regarding TCCCGTATAGTCCGCGAGA, the TetR repression strength was 0.

On to TCCCTGGCAGTTGTAGAGA, for which the TetR repression strength turned out to be 0.235.

In turn, TCCCAGTTAGTTGGCGAGA showed a TetR repression strength of 0.398.

Regarding TCCCAGAAAGTAAAAGAGA, the TetR repression strength is 0.504.

In turn, TCCCGCCAAGTATAAGAGA yielded a TetR repression strength of 0.264.

As for TCCCGCTCAGTGTTAGAGA, the TetR repression strength was found to be 0.433.

As to TCCCAGACAGTGCGGGAGA, the TetR repression strength was 0.264.

For TCCCCGGCAGTGACGGAGA, the TetR repression strength was determined as 0.136.

As for TCCCGGACAGTGCGCGAGA, the TetR repression strength is 0.131.

The sequence TCCCACCCAGTTGTTGAGA displayed a TetR repression strength of 0.0405.

TCCCATGGAGTTACGGAGA had a TetR repression strength of 0.122.

The sequence TCCCAGGAAGTGAGAGAGA had a TetR repression strength of 0.221.

In turn, TCCCAAGAAGTTAGCGAGA yielded a TetR repression strength of 0.104.

In the case of TCCCAAAGAGTGTGCGAGA, the TetR repression strength is 0.302.

Consider TCCCGTCAAGTCCAAGAGA, for which the TetR repression strength was 0.051.

TCCCAGTCAGTTGAAGAGA gave a TetR repression strength of 0.858.

In the case of TCCCCAGGAGTAGGAGAGA, the TetR repression strength stood at 0.218.

In turn, TCCCGAGAAGTGTGTGAGA showed a TetR repression strength of 0.239.

In turn, TCCCGTCAAGTTCAAGAGA registered a TetR repression strength of 0.

TCCCTTAGAGTTAAAGAGA showed a TetR repression strength of 0.352.

As to TCCCGTCTAGTGGTAGAGA, the TetR repression strength is 0.52.

For the sequence TCCCACAGAGTAGCCGAGA, the TetR repression strength worked out at 0.0299.

The sequence TCCCGAGGAGTTTCCGAGA gave a TetR repression strength of 0.13.

TCCCGAGGAGTAGCGGAGA gave a TetR repression strength of 0.628.

On to TCCCACCTAGTCGGGGAGA, for which the TetR repression strength was 0.191.

As to TCCCTGTGAGTGAGAGAGA, the TetR repression strength worked out at 0.407.

TCCCGAACAGTGTACGAGA: the TetR repression strength worked out at 0.0363.

TCCCCCGAAGTGCATGAGA gave a TetR repression strength of 0.14.

TCCCCCTTAGTGGGTGAGA displayed a TetR repression strength of 0.00576.

TCCCTGTCAGTGGTTGAGA gave a TetR repression strength of 0.486.

For the sequence TCCCTTTCAGTGAGAGAGA, the TetR repression strength is 0.566.

TCCCTCGGAGTCATGGAGA gave a TetR repression strength of 0.132.

As for TCCCGAGAAGTGGTGGAGA, the TetR repression strength is 0.0377.

In the case of TCCCATTGAGTCCTGGAGA, the TetR repression strength was 0.306.

TCCCTGAAAGTGTGAGAGA came in with a TetR repression strength of 0.0794.

TCCCGCAGAGTCTGAGAGA showed a TetR repression strength of 0.23.

TCCCCTTTAGTTTAGGAGA: the TetR repression strength is 0.313.

The sequence TCCCGTAAAGTCGAAGAGA gave a TetR repression strength of 0.466.

The sequence TCCCGACAAGTTGCTGAGA registered a TetR repression strength of 0.0804.

TCCCTAGTAGTAGCTGAGA had a TetR repression strength of 0.307.

With TCCCCCAGAGTTTCGGAGA, the TetR repression strength stood at 0.11.

With TCCCTGATAGTATTGGAGA, the TetR repression strength is 0.311.

As to TCCCACGGAGTTCTAGAGA, the TetR repression strength turned out to be 0.219.

Regarding TCCCTATTAGTCTCCGAGA, the TetR repression strength came to 0.532.

With TCCCGGTGAGTGCCGGAGA, the TetR repression strength came out at 0.235.

Sequence TCCCGCAGAGTGAGAGAGA gave a TetR repression strength of 0.191.

TCCCGTCAAGTGACAGAGA: the TetR repression strength came out at 0.145.

Sequence TCCCTTAAAGTAGTTGAGA displayed a TetR repression strength of 0.228.

For TCCCGGAGAGTGCGCGAGA, the TetR repression strength was found to be 0.116.

TCCCATAAAGTCGCAGAGA: the TetR repression strength was determined as 0.37.

TCCCGCTCAGTACTAGAGA registered a TetR repression strength of 0.173.

TCCCCGTGAGTCGATGAGA gave a TetR repression strength of 0.313.

TCCCGCGGAGTGGTAGAGA had a TetR repression strength of 0.115.

TCCCCTGTAGTGCAGGAGA had a TetR repression strength of 0.128.

TCCCTAAGAGTGCGGGAGA came in with a TetR repression strength of 0.0983.

TCCCACGGAGTCGGCGAGA displayed a TetR repression strength of 0.148.

Turning to TCCCTTCAAGTAGGAGAGA, the TetR repression strength is 0.281.

In turn, TCCCACCGAGTGATGGAGA gave a TetR repression strength of 0.167.

As to TCCCGGTTAGTACTGGAGA, the TetR repression strength amounted to 0.416.

Sequence TCCCATCGAGTTCTGGAGA displayed a TetR repression strength of 0.0421.

TCCCAGGTAGTAATAGAGA displayed a TetR repression strength of 0.443.

Sequence TCCCGCGTAGTAATTGAGA came in with a TetR repression strength of 0.207.

Consider TCCCCTCGAGTGGTTGAGA, for which the TetR repression strength amounted to 0.13.

TCCCCGTCAGTCGTAGAGA: the TetR repression strength was found to be 0.336.

The sequence TCCCGCTAAGTATCCGAGA displayed a TetR repression strength of 0.0259.

For the sequence TCCCAAGGAGTAGTCGAGA, the TetR repression strength came to 0.216.

TCCCGGTGAGTTATCGAGA: the TetR repression strength is 0.196.

TCCCTTAAAGTAGGTGAGA registered a TetR repression strength of 0.

Consider TCCCGAAAAGTCGCTGAGA, for which the TetR repression strength stood at 0.133.

As to TCCCTTCTAGTAGACGAGA, the TetR repression strength was determined as 0.308.

Sequence TCCCGTGCAGTAGCCGAGA gave a TetR repression strength of 0.0632.

The sequence TCCCGGTTAGTGTGTGAGA came in with a TetR repression strength of 0.17.

Sequence TCCCGGTCAGTCCGCGAGA gave a TetR repression strength of 0.162.

For TCCCATGAAGTTTGTGAGA, the TetR repression strength came to 0.0431.

For TCCCCGGAAGTAGTCGAGA, the TetR repression strength was found to be 0.168.

With TCCCTAAAAGTACAGGAGA, the TetR repression strength worked out at 0.262.

For the sequence TCCCGGTGAGTGGCGGAGA, the TetR repression strength came out at 0.131.

The sequence TCCCTGTTAGTACTGGAGA had a TetR repression strength of 0.322.

In turn, TCCCGTCGAGTTGTCGAGA came in with a TetR repression strength of 0.472.

TCCCATTCAGTAAGGGAGA came in with a TetR repression strength of 0.194.

TCCCGTCAAGTGGGGGAGA returned a TetR repression strength of 0.151.

Consider TCCCTGCTAGTCTAGGAGA, for which the TetR repression strength was 0.121.
